# In PubChem BioAssay AID2100 (National Center for Advancing Translational Sciences (NCATS), 2009):
# In all, about 300,000 compounds went through this assay and about 1,200 (0.4%) were called active. Inconclusive means that the source gave no clear call. Such entries were picked first, then a sample of the others. Calls follow the shape of the dose curve; as a rule, active = well fitted inhibition curve with a large enough effect; inconclusive = small, poorly fitted or top-dose-only effect, or another doubt; inactive = no such curve, though single readings can be large or run the other way. A potency beside an inconclusive call is a rough fit, not a confirmed value.
# Target: Lysosomal alpha-glucosidase (Homo sapiens) (UniProt P10253)
# Assay: qHTS Assay for Inhibitors and Activators of Human alpha-Glucosidase Cleavage of Glycogen;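 as to activity change, negative = inhibition: 0% = full enzyme reaction and -100% = no-enzyme basal signal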
# Conditions: recombinant GAA, glycogen substrate, Amplex Red glucose oxidase fluorescence; activity change, negative = inhibition: at 76.4 µM (top of the series) unless noted
# Method in brief: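 Recombinant human enzyme (4 nM); glycogen substrate; 37 C, 40 min, pH 5.0. Readout: coupled glucose oxidase/Amplex Red fluorescence.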
# Potency is read from the fitted curve at half-maximal effect.
SMILES,Potency,"activity change, negative = inhibition"
COC(=O)c1c(NC(=S)NN2CCN(C)CC2)sc2c1CCC(C)C2 (configuration not stated),"inconclusive: 14.1 µM [inhibitor, partial curve]",
Cc1cc(C(=O)NNC(=S)NCc2ccco2)nn1C,"inconclusive: 7.88 µM [inhibitor, full curve, poor fit]",
CO[C@H]1C=CO[C@@]2(C)Oc3c(C)c(O)c4c(O)c(c5c(nc6cc(C)ccn65)c4c3C2=O)NC(=O)C(C)=CC=C[C@H](C)[C@H](O)[C@@H](C)[C@@H](O)[C@@H](C)[C@H](OC(C)=O)[C@@H]1C,active: 20 µM,
CC1(C)CC(=O)C2=C(C1)Oc1nc3ccccc3cc1C2C(C#N)C#N (configuration not stated),"inconclusive: 39.8 µM [inhibitor, single point]",
Oc1ccc(C2Nc3cccc4cccc(c34)N2)c(O)c1,active: 19.8 µM,
COc1cc(C(=S)N2CCC(C)CC2)ccc1O,"inconclusive: 35.5 µM [inhibitor, partial curve]",
COc1ccc(NC2CCCN(C(=O)c3oc(C)cc3C)C2)cc1OC (configuration not stated),"inconclusive: 25.1 µM [inhibitor, partial curve]",
COc1ccc(/C=N/NC(=O)c2ccncc2)cc1CN1CCCc2ccccc21,"inconclusive: 25.1 µM [inhibitor, partial curve]",
Nc1c(N2CCN(c3ccccc3)CC2)c2ccccc2oc1=O,"inconclusive: 25.1 µM [inhibitor, partial curve]",
CSc1cc(-c2ccc(Cl)cc2)c(C(=O)NN)s1,"inconclusive: 28.2 µM [inhibitor, single point]",
Cc1[nH]c2ccccc2c1/C=N/Nc1nc2ccccc2[nH]1,"inconclusive: 17.8 µM [inhibitor, single point]",
CN(C(=S)Nc1cccnc1)c1ccc(O)cc1,"inconclusive: 12.6 µM [inhibitor, partial curve]",
COc1ccc(-c2cc(C(=O)Nc3cccc(O)c3)on2)cc1OC,"inconclusive: 50.1 µM [inhibitor, single point]",
CCOC(=O)/C(C)=N/Nc1nc(-c2ccc(NC(C)=O)cc2)cs1,"inconclusive: 4.47 µM [inhibitor, full curve]",
COc1cccc(C2=NS(=O)(=O)N(C)C(C(=O)Nc3ccccc3SC)=C2)c1,inactive,
O=C(NCc1cccs1)c1ccc(CSc2nc3ccncc3n2Cc2ccccc2)cc1,"inconclusive: 3.55 µM [inhibitor, partial curve]",
N#Cc1c(-n2ncnc2-c2ccccc2C(F)(F)F)sc2c1CCCCC2,inactive,
Cc1c(N=Cc2cccnc2)c(=O)n(-c2ccccc2)n1C,"inconclusive: 50.1 µM [inhibitor, single point]",
COc1ccccc1/C=C/C=N/NC(=O)CC1C(=O)NN=C1C (configuration not stated),"inconclusive: 35.5 µM [inhibitor, partial curve]",
Cc1ccc(C(CC(=O)N2CCCC2)c2ccccc2)c(O)c1C (configuration not stated),"inconclusive: 31.6 µM [inhibitor, single point]",
COc1cc(CN2CCN(CCCc3ccccc3)C(CCO)C2)cc(OC)c1O (configuration not stated),"inconclusive: 6.31 µM [inhibitor, single point]",
CCOc1ccc(NC(=S)NNC(=S)Nc2cccc(C(F)(F)F)c2)cc1,"inconclusive: 9.92 µM [inhibitor, partial curve]",
Cn1c(=O)c2ccccc2n2c(=S)[nH]nc12,"inconclusive: 3.55 µM [inhibitor, full curve]",

SMILES,Potency,"activity change, negative = inhibition"
O=c1oc2ccccc2c2c1C1O[C@](c3ccsc3)(Cc3c1ccc1ccccc31)O2,"inconclusive: 7.94 µM [inhibitor, partial curve]",
CC(=O)Nc1ccc(-c2csc(NNC(=O)c3ccccc3)n2)cc1,"inconclusive: 17.8 µM [inhibitor, partial curve]",
O=C1Cc2cc(S(=O)(=O)N3CCCCC3)ccc2N1,"inconclusive: 31.6 µM [inhibitor, partial curve]",
Nc1ccccc1C(=O)NNc1ncc(C(F)(F)F)cc1Cl,"inconclusive: 12.5 µM [inhibitor, partial curve]",
CCOc1ccc(-c2nonc2NC(=O)c2oc3cc(Br)ccc3c2C)cc1,inactive,
Cc1cc(O)ccc1Nc1nc(-c2cccs2)cs1,active: 31.6 µM,
CC1(OC(=O)C2CCCC2)C(=O)C=C2C=C(c3ccsc3)N(CC3CC3)C=C2C1=O (configuration not stated),inactive,
O=C1NC(NS(=O)(=O)c2ccc(Cl)cc2)(C(F)(F)F)C(=O)N1Cc1cccnc1 (configuration not stated),,inconclusive: 4.81% [activator]
Oc1cccc(NC(=S)N=Nc2c(O)[nH]c3ccccc23)c1,"inconclusive: 35.5 µM [inhibitor, partial curve]",
Cc1ccc(C2=[N+]([O-])C(C)(C)N(O)C2(C)C)cc1,"inconclusive: 44.7 µM [inhibitor, single point]",
COc1cc(C2CC(=O)Nc3cc4c(cc32)OCCO4)cc(OC)c1O (configuration not stated),inactive,
COc1ccccc1NC(=S)NNC(=O)c1nn(C)c(C)c1Cl,"inconclusive: 35.5 µM [inhibitor, partial curve]",
Cc1cc(-c2ccccc2)nc(N/N=C/c2ccc(O)cc2O)n1,"inconclusive: 31.6 µM [inhibitor, single point]",
CC1(C)CC(=O)c2c(oc3cc(O)c(O)cc23)C1,active: 7.94 µM,
O=C(CSc1nnc(SCC(=O)c2ccco2)s1)c1ccco1,"inconclusive: 22.2 µM [inhibitor, single point]",
Cc1cccc(C)c1NC(=O)CN(C)S(=O)(=O)c1ccc2c(c1)n(C)c(=O)c(=O)n2C,inactive,
CC1CCCC2(C1)NC(=S)N(c1ccccc1)N2 (configuration not stated),"inconclusive: 28.2 µM [inhibitor, partial curve]",
C/C(Cn1nnc([N+](=O)[O-])n1)=N\NC(=O)c1ccccc1O,"inconclusive: 35.5 µM [inhibitor, partial curve]",
O=C(OCCOc1cccc(Cl)c1)c1ccc2ncsc2c1,inactive,
CCn1c(-c2csc3c2CCC(C)C3)n[nH]c1=S (configuration not stated),"inconclusive: 44.7 µM [inhibitor, single point]",
Cc1ccc(Cl)cc1NC(=O)/C(C#N)=C\c1cn(Cc2ccc(F)cc2)c2ccccc12,inactive,
COc1ccc(/C(O)=C/C(=O)C(=O)NNC(=O)c2ccccc2)cc1,"inconclusive: 35.5 µM [inhibitor, single point]",
Cc1ccc(C)c(NC(=O)Cn2c(=O)n(Cc3cccs3)c(=O)c3cccnc32)c1,inactive,

SMILES,Potency,"activity change, negative = inhibition"
Cc1ccc(-c2cc(C(=O)N3CCN(S(=O)(=O)c4ccc(Br)s4)CC3)[nH]n2)c(C)c1,active: 8.91 µM,
COc1ccc(C/C(C)=N/Nc2nc(C)cc(=O)[nH]2)cc1,"inconclusive: 56.2 µM [inhibitor, partial curve]",
COc1ccc(/C=C2\CCCc3c2nc2ccc(C)cc2c3C(=O)O)cc1O,"inconclusive: 39.8 µM [inhibitor, single point]",
O=C(O)c1ccc(N/N=C/C2=C(N3CCOCC3)C(=C\c3ccccc3)/CC2)cc1,"inconclusive: 15.7 µM [inhibitor, partial curve]",
CC(C)c1cc(C(=O)N/N=C/c2ccoc2)c(O)c(C(C)C)c1,"inconclusive: 50.1 µM [inhibitor, single point]",
COc1cccc(C2Nc3ccccc3-c3nnc(SCc4ccccc4)nc3O2)c1OC (configuration not stated),inactive,
Cc1cccc(Nc2nc(-c3c(C)nc4ccccn34)cs2)c1,"inconclusive: 22.4 µM [inhibitor, partial curve]",
Cc1cc(C)c2cc(CN(CCN3CCCC3)C(=O)Nc3ccc(F)cc3)c(=O)[nH]c2c1,"inconclusive: 50.1 µM [activator, single point]",
COc1ccc(/C=N\Nc2ncc(F)c(N3CCOCC3)n2)cc1OC,"inconclusive: 44.7 µM [inhibitor, single point]",
CC1C(c2ccccc2)=[N+]([O-])C2(CCCC2)N1O (configuration not stated),"inconclusive: 28.2 µM [inhibitor, single point]",
O=C(NCCc1cn[nH]c1)C1CCC(=O)N(CCc2cccc(F)c2)C1 (configuration not stated),"inconclusive: 11.2 µM [inhibitor, single point]",
COc1cccc(-c2ccnc3[nH]n(-c4ccccc4)c(=O)c23)c1,"inconclusive: 7.94 µM [inhibitor, partial curve]",
COC(=O)c1ccccc1-n1cc2c(c1-c1cccc(C)c1)c(=O)n(C)c(=O)n2C,inactive,
COc1ccc(CNc2ncc(-c3ccc(F)cc3)n2C)cc1OC,"inconclusive: 22.4 µM [inhibitor, single point]",
CCCN(CCC)CCNC(=O)C1CCN(c2nc3ccc(CC)cc3s2)CC1,inactive,
CCOC(=O)c1cnc2ccc(Cl)cc2c1Nc1ccc(N2CCOCC2)cc1,"inconclusive: 12.6 µM [inhibitor, partial curve]",
CNC(=O)c1c(NC(NC(=O)c2ccco2)C(=O)c2ccc(Cl)cc2)sc2c1CCCC2 (configuration not stated),"inconclusive: 35.5 µM [inhibitor, single point]",
COC(=O)C1(C(=O)OC)Sc2ccccc2C1=O,"inconclusive: 8.84 µM [inhibitor, partial curve]",
CCc1nc2ccccc2n1CC1CC1(Cl)Cl (configuration not stated),"inconclusive: 24.9 µM [inhibitor, single point]",
Cc1ccc(C)c(-c2csc(N/N=C/c3ccco3)n2)c1,"inconclusive: 25.1 µM [inhibitor, partial curve]",
Cc1ccc(-c2cc(=O)[nH][nH]2)c(C)c1,"inconclusive: 35.5 µM [inhibitor, single point]",
